# From the supplement of paper PMC8728848
# This is one part of the list.
# B1: Als3-41 (Candida albicans) (protein)
# chain: KTITGVFNSFNSLTWSNAATYNYKGPGTPTWNAVLGWSLDGTSASPGDTFTLNMPCVFKFTTSQTSVDLTAHGVKYATCQFQAGEEFMTFSTLTCTVSNTLTPSIKALGTVTLPLAFNVGGTGSSVDLEDSKCFTAGTNTVTFNDGGKKISINVDFERSNVDPKGYLTDSRVIPSLNKVSTLFVAPQCANGYTSGTMGFANTYGDVQIDCSNIHVGITKGLNDWNYPVSSESFSYTKTCSSNGIFITYKNVPAGYRPFVDAYISATDVNSYTLSYANEYTCAGGYWQRAPFTLRWTGYRNSDAGSNGIVIVATTRTVTDSTTAVTTLPFDPNRDKTKTIEILKPIPTTTITTSYVGVTTSYLTKTAPIGETATVIVD
# How the values were obtained:
# Assay in all cases: glycan array binding signal (z-score within array); higher = stronger binding
# Settings in all cases: glycan notation: IUPAC condensed, linker removed
# [1] = target: GlcNAc(a1-6)Gal(b1-4)GlcNAc
# Outline: (§1)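 Columns mapping to the same glycan were averaged after glycan names were converted to IUPAC-condensed notation. The data come from 3228 arrays in the Consortium for Functional Glycomics database, limited to those with an available protein sequence. Binding is reported as a within-array Z-score averaged across arrays of one protein sequence and across linkers.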
# [2] = target: GlcNAc(b1-2)Gal(b1-3)GalNAc
# Outline: as §1
# [3] = target: GlcNAc(b1-2)Man(a1-3)[GlcNAc(b1-2)Man(a1-6)]Man(b1-4)GlcNAc(b1-4)GlcNAc
# Outline: as §1
# [4] = target: GlcNAc(b1-2)Man(a1-3)[GlcNAc(b1-2)Man(a1-6)]Man(b1-4)GlcNAc(b1-4)[Fuc(a1-6)]GlcNAc
# Outline: as §1
# [5] = target: GlcNAc(b1-2)Man(a1-3)[GlcNAc(b1-4)][GlcNAc(b1-2)Man(a1-6)]Man(b1-4)GlcNAc(b1-4)GlcNAc
# Outline: as §1
# [6] = target: GlcNAc(b1-2)Man(a1-3)[GlcNAc(b1-4)][GlcNAc(b1-2)Man(a1-6)]Man(b1-4)GlcNAc(b1-4)[Fuc(a1-6)]GlcNAc
# Outline: as §1
# [7] = target: GlcNAc(b1-2)[GlcNAc(b1-4)]Man(a1-3)[GlcNAc(b1-2)Man(a1-6)]Man(b1-4)GlcNAc(b1-4)GlcNAc
# Outline: as §1
# [8] = target: GlcNAc(b1-2)[GlcNAc(b1-4)]Man(a1-3)[GlcNAc(b1-4)][GlcNAc(b1-2)Man(a1-6)]Man(b1-4)GlcNAc(b1-4)GlcNAc
# Outline: as §1
# [9] = target: GlcNAc(b1-2)[GlcNAc(b1-4)]Man(a1-3)[GlcNAc(b1-4)][GlcNAc(b1-2)[GlcNAc(b1-6)]Man(a1-6)]Man(b1-4)GlcNAc(b1-4)GlcNAc
# Outline: as §1
# [10] = target: GlcNAc(b1-2)[GlcNAc(b1-4)]Man(a1-3)[GlcNAc(b1-4)][GlcNAc(b1-2)[GlcNAc(b1-6)]Man(a1-6)]Man(b1-4)GlcNAc(b1-4)[Fuc(a1-6)]GlcNAc
# Outline: as §1
# [11] = target: GlcNAc(b1-2)[GlcNAc(b1-6)]Man(a1-6)[GlcNAc(b1-2)Man(a1-3)]Man(b1-4)GlcNAc(b1-4)GlcNAc
# Outline: as §1
# [12] = target: GlcNAc(b1-2)[GlcNAc(b1-6)]Man(a1-6)[GlcNAc(b1-2)Man(a1-3)]Man(b1-4)GlcNAc(b1-4)[Fuc(a1-6)]GlcNAc
# Outline: as §1
# [13] = target: GlcNAc(b1-2)[GlcNAc(b1-6)]Man(a1-6)[GlcNAc(b1-4)][GlcNAc(b1-2)Man(a1-3)]Man(b1-4)GlcNAc(b1-4)GlcNAc
# Outline: as §1
# GlcNAc(b1-3)Fuc = target: GlcNAc(b1-3)Fuc
# Outline: as §1
# GlcNAc(b1-3)Gal = target: GlcNAc(b1-3)Gal
# Outline: as §1
# [14] = target: GlcNAc(b1-3)Gal(b1-3)GalNAc
# Outline: as §1
# GlcNAc(b1-3)Gal(b1-4)Glc = target: GlcNAc(b1-3)Gal(b1-4)Glc
# Outline: as §1
# [15] = target: GlcNAc(b1-3)Gal(b1-4)GlcNAc
# Outline: as §1
# [16] = target: GlcNAc(b1-3)Gal(b1-4)GlcNAc(b1-2)Man(a1-3)[GlcNAc(b1-3)Gal(b1-4)GlcNAc(b1-2)Man(a1-6)]Man(b1-4)GlcNAc(b1-4)GlcNAc
# Outline: as §1
# [17] = target: GlcNAc(b1-3)Gal(b1-4)GlcNAc(b1-2)Man(a1-3)[GlcNAc(b1-3)Gal(b1-4)GlcNAc(b1-2)Man(a1-6)]Man(b1-4)GlcNAc(b1-4)[Fuc(a1-6)]GlcNAc
# Outline: as §1
# [18] = target: GlcNAc(b1-3)Gal(b1-4)GlcNAc(b1-2)[GlcNAc(b1-3)Gal(b1-4)GlcNAc(b1-6)]Man(a1-6)[GlcNAc(b1-3)Gal(b1-4)GlcNAc(b1-2)Man(a1-3)]Man(b1-4)GlcNAc(b1-4)GlcNAc
# Outline: as §1
# [19] = target: GlcNAc(b1-3)Gal(b1-4)GlcNAc(b1-3)Gal(b1-4)GlcNAc
# Outline: as §1
# [20] = target: GlcNAc(b1-3)Gal(b1-4)GlcNAc(b1-3)Gal(b1-4)GlcNAc(b1-2)Man(a1-3)[GlcNAc(b1-3)Gal(b1-4)GlcNAc(b1-3)Gal(b1-4)GlcNAc(b1-2)Man(a1-6)]Man(b1-4)GlcNAc(b1-4)GlcNAc
# Outline: as §1
# [21] = target: GlcNAc(b1-3)Gal(b1-4)GlcNAc(b1-3)Gal(b1-4)GlcNAc(b1-2)Man(a1-3)[GlcNAc(b1-3)Gal(b1-4)GlcNAc(b1-3)Gal(b1-4)GlcNAc(b1-2)Man(a1-6)]Man(b1-4)GlcNAc(b1-4)[Fuc(a1-6)]GlcNAc
# Outline: as §1
# [22] = target: GlcNAc(b1-3)Gal(b1-4)GlcNAc(b1-3)Gal(b1-4)GlcNAc(b1-2)[GlcNAc(b1-3)Gal(b1-4)GlcNAc(b1-3)Gal(b1-4)GlcNAc(b1-6)]Man(a1-6)[GlcNAc(b1-3)Gal(b1-4)GlcNAc(b1-3)Gal(b1-4)GlcNAc(b1-2)Man(a1-3)]Man(b1-4)GlcNAc(b1-4)[Fuc(a1-6)]GlcNAc
# Outline: as §1
# [23] = target: GlcNAc(b1-3)Gal(b1-4)GlcNAc(b1-3)Gal(b1-4)GlcNAc(b1-3)Gal(b1-4)GlcNAc(b1-2)Man(a1-3)[GlcNAc(b1-3)Gal(b1-4)GlcNAc(b1-3)Gal(b1-4)GlcNAc(b1-3)Gal(b1-4)GlcNAc(b1-2)Man(a1-6)]Man(b1-4)GlcNAc(b1-4)GlcNAc
# Outline: as §1
# [24] = target: GlcNAc(b1-3)Gal(b1-4)GlcNAc(b1-3)Gal(b1-4)GlcNAc(b1-3)Gal(b1-4)GlcNAc(b1-2)Man(a1-3)[GlcNAc(b1-3)Gal(b1-4)GlcNAc(b1-3)Gal(b1-4)GlcNAc(b1-3)Gal(b1-4)GlcNAc(b1-2)Man(a1-6)]Man(b1-4)GlcNAc(b1-4)[Fuc(a1-6)]GlcNAc
# Outline: as §1
# [25] = target: GlcNAc(b1-3)Gal(b1-4)GlcNAc(b1-3)Gal(b1-4)GlcNAc(b1-3)Gal(b1-4)GlcNAc(b1-2)[GlcNAc(b1-3)Gal(b1-4)GlcNAc(b1-3)Gal(b1-4)GlcNAc(b1-3)Gal(b1-4)GlcNAc(b1-6)]Man(a1-6)[GlcNAc(b1-3)Gal(b1-4)GlcNAc(b1-3)Gal(b1-4)GlcNAc(b1-3)Gal(b1-4)GlcNAc(b1-2)Man(a1-3)]Man(b1-4)GlcNAc(b1-4)[Fuc(a1-6)]GlcNAc
# Outline: as §1
# [26] = target: GlcNAc(b1-3)Gal(b1-4)GlcNAc(b1-3)Gal(b1-4)GlcNAc(b1-3)Gal(b1-4)GlcNAc(b1-3)Gal(b1-4)GlcNAc(b1-2)Man(a1-3)[GlcNAc(b1-3)Gal(b1-4)GlcNAc(b1-3)Gal(b1-4)GlcNAc(b1-3)Gal(b1-4)GlcNAc(b1-3)Gal(b1-4)GlcNAc(b1-2)Man(a1-6)]Man(b1-4)GlcNAc(b1-4)GlcNAc
# Outline: as §1
# [27] = target: GlcNAc(b1-3)Gal(b1-4)GlcNAc(b1-3)Gal(b1-4)GlcNAc(b1-3)Gal(b1-4)GlcNAc(b1-3)Gal(b1-4)GlcNAc(b1-2)Man(a1-3)[GlcNAc(b1-3)Gal(b1-4)GlcNAc(b1-3)Gal(b1-4)GlcNAc(b1-3)Gal(b1-4)GlcNAc(b1-3)Gal(b1-4)GlcNAc(b1-2)Man(a1-6)]Man(b1-4)GlcNAc(b1-4)[Fuc(a1-6)]GlcNAc
# Outline: as §1
# [28] = target: GlcNAc(b1-3)Gal(b1-4)GlcNAc(b1-3)Gal(b1-4)GlcNAc(b1-3)Gal(b1-4)GlcNAc(b1-3)Gal(b1-4)GlcNAc(b1-2)[GlcNAc(b1-3)Gal(b1-4)GlcNAc(b1-3)Gal(b1-4)GlcNAc(b1-3)Gal(b1-4)GlcNAc(b1-3)Gal(b1-4)GlcNAc(b1-6)]Man(a1-6)[GlcNAc(b1-3)Gal(b1-4)GlcNAc(b1-3)Gal(b1-4)GlcNAc(b1-3)Gal(b1-4)GlcNAc(b1-3)Gal(b1-4)GlcNAc(b1-2)Man(a1-3)]Man(b1-4)GlcNAc(b1-4)[Fuc(a1-6)]GlcNAc
# Outline: as §1
# [29] = target: GlcNAc(b1-3)Gal(b1-4)GlcNAc(b1-3)Gal(b1-4)GlcNAc(b1-3)GalNAc
# Outline: as §1
# [30] = target: GlcNAc(b1-3)Gal(b1-4)GlcNAc(b1-3)GalNAc
# Outline: as §1
# [31] = target: GlcNAc(b1-3)Gal(b1-4)GlcNAc(b1-3)[GlcNAc(b1-3)Gal(b1-4)GlcNAc(b1-3)]GalNAc
# Outline: as §1
# [32] = target: GlcNAc(b1-3)Gal(b1-4)GlcNAc(b1-6)[Gal(b1-3)]GalNAc
# Outline: as §1
# [33] = target: GlcNAc(b1-3)Gal(b1-4)GlcNAc(b1-6)[GlcNAc(b1-3)Gal(b1-3)]GalNAc
# Outline: as §1
# [34] = target: GlcNAc(b1-3)Gal(b1-4)GlcNAc(b1-6)[GlcNAc(b1-3)]Gal(b1-4)GlcNAc
# Outline: as §1
binder,measurement,setting,value
B1,glycan array binding signal (z-score),[1],0.077
same,glycan array binding signal (z-score),[2],-0.144
same,glycan array binding signal (z-score),[3],-0.278
same,glycan array binding signal (z-score),[4],0.322
same,glycan array binding signal (z-score),[5],-0.286
same,glycan array binding signal (z-score),[6],-0.328
same,glycan array binding signal (z-score),[7],-0.372
same,glycan array binding signal (z-score),[8],-0.136
same,glycan array binding signal (z-score),[9],-0.308
same,glycan array binding signal (z-score),[10],-0.311
same,glycan array binding signal (z-score),[11],-0.27
same,glycan array binding signal (z-score),[12],-0.266
same,glycan array binding signal (z-score),[13],-0.362
same,glycan array binding signal (z-score),GlcNAc(b1-3)Fuc,0.635
same,glycan array binding signal (z-score),GlcNAc(b1-3)Gal,-0.245
same,glycan array binding signal (z-score),[14],-0.224
same,glycan array binding signal (z-score),GlcNAc(b1-3)Gal(b1-4)Glc,-0.199
same,glycan array binding signal (z-score),[15],-0.27
same,glycan array binding signal (z-score),[16],-0.231
same,glycan array binding signal (z-score),[17],0.627
same,glycan array binding signal (z-score),[18],1.97
same,glycan array binding signal (z-score),[19],-0.339
same,glycan array binding signal (z-score),[20],2.21
same,glycan array binding signal (z-score),[21],0.866
same,glycan array binding signal (z-score),[22],0.214
same,glycan array binding signal (z-score),[23],-0.156
same,glycan array binding signal (z-score),[24],1.72
same,glycan array binding signal (z-score),[25],0.012
same,glycan array binding signal (z-score),[26],-0.211
same,glycan array binding signal (z-score),[27],1.01
same,glycan array binding signal (z-score),[28],-0.052
same,glycan array binding signal (z-score),[29],-0.155
same,glycan array binding signal (z-score),[30],-0.241
same,glycan array binding signal (z-score),[31],0.496
same,glycan array binding signal (z-score),[32],0.144
same,glycan array binding signal (z-score),[33],-0.068
same,glycan array binding signal (z-score),[34],0.202
